Reference: patent publication US20160340421A1 (Regeneron, published 2016)

Key:
hGDF11 homodimer [1] = target: T1, hGDF11 homodimer (human, UniProt O95390 299-407); assay: SPR Biacore T100, captured on anti-hFc, 25°C
T1 sequence (looked up): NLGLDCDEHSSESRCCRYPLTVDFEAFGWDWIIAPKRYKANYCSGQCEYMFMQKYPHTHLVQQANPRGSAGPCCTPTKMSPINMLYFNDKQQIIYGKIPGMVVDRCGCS
Procedure: (§1) Additional antigen binding experiments were conducted in which GDF8 and GDF11 were applied over a surface of selected anti-GDF8 antibodies and control antibodies at 25° C. and 37° C. Equilibrium dissociation constants (KD values) for antigen binding to selected antibodies were determined by surface kinetics using a real-time biosensor surface plasmon resonance assay (BIACORE™ T100). […] Various concentrations (2.5-0.625 nM, 2-fold dilutions) of hGDF8 homodimer or hGDF11 homodimer (or in some experiments, Activin A) were injected over the captured antibody surfaces, and antigen-antibody binding and dissociation were monitored in real time. Kinetic analysis was performed to calculate KD, dissociation rate constants (kd), association rate constants (ka) and half-life of antigen/antibody complex dissociation. (NB=no binding observed).

[2] = target: T2, Human GDF8 homodimer (mature human Growth and Differentiation Factor-8) (human, UniProt O14793 267-375); assay: SPR Biacore T100, captured on anti-hFc, 25°C
T2 construct: also called hGDF8; myostatin
T2 sequence: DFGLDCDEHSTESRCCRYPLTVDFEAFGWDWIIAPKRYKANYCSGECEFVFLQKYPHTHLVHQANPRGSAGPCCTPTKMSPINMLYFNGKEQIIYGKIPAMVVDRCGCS
Procedure: as §1

Activin A = target: T3, Activin A (UniProt P08476 311-426); assay: SPR Biacore T100, captured on anti-hFc, 25°C
T3 sequence (looked up): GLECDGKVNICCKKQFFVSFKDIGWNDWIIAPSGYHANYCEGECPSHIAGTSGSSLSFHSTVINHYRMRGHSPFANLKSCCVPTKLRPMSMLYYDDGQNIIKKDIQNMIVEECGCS
Procedure: as §1

hGDF11 homodimer [3] = target: T1, hGDF11 homodimer; assay: SPR Biacore T100, captured on anti-hFc, 37°C
Procedure: as §1

[4] = target: T2, Human GDF8 homodimer (mature human …); assay: SPR Biacore T100, captured on anti-hFc, 37°C
Procedure: as §1

| Binder | Kd (hGDF11 homodimer [1]) | T1/2 (hGDF11 homodimer [1]) | Kd [2] | T1/2 [2] | Kd (Activin A) | T1/2 (Activin A) | Kd (hGDF11 homodimer [3]) | T1/2 (hGDF11 homodimer [3]) | Kd [4] | T1/2 [4] |
| --- | --- | --- | --- | --- | --- | --- | --- | --- | --- | --- |
| Control III: ActRIIB-Fc fusion construct (Fc fusion, also called ActRIIB-hFc [A64]) EAETRECIYYNANWELERTNQSGLERCEGEQDKRLHCYASWANSSGTIELVKKGCWLDDFNCYDRQECVATEENPQVYFCCCEGNFCNERFTHLPEAGGPEVTYEPPPTAPSG[sequence of human IgG1 Fc not given] | 23.8 pM | 2.2 h | 30.7 pM | 1.85 h | 8.5 pM | 3.27 h | 9.92 pM | 0.883 h | 6.4 pM | 1.73 h |
| Control IV: variant ActRIIB-Fc fusion construct (Fc fusion, identical to Control III except A64R; also called ActRIIB-hFc [R64]) EAETRECIYYNANWELERTNQSGLERCEGEQDKRLHCYASWRNSSGTIELVKKGCWLDDFNCYDRQECVATEENPQVYFCCCEGNFCNERFTHLPEAGGPEVTYEPPPTAPSG[sequence of human IgG1 Fc not given] | 3 pM | 3.85 h | 21.3 pM | 3.97 h | 3 pM | 7.32 h |  |  |  |  |
